From PMC10726135 come the findings set out here.

Some of the results follow. At the low end of the ranking, values are background and their order means little. Measured with an extract: partners may take part in the binding.

The target of this assay is T1, HNF4alpha8 (COS-7 nuclear extract) (UniProt P41235-5).
T1 sequence: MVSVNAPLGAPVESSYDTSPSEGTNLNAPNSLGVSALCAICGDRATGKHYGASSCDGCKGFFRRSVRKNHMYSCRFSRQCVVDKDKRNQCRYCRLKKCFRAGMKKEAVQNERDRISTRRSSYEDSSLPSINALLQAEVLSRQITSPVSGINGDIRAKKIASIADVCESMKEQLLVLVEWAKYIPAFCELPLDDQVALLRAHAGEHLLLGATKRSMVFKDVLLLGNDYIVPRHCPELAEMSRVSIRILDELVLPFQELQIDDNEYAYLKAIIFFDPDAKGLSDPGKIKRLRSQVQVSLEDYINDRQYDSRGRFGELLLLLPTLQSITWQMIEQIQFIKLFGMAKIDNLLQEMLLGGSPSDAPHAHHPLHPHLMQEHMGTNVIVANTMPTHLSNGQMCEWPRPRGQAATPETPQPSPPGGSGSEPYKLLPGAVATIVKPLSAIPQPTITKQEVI
The experiment in a line: protein-binding microarray. The conditions noted are these: COS-7 nuclear extract on double-stranded Agilent 4x180k PBM; binding buffer, salt, pH and temperature not given; high values mean tight binding; double strand, one strand shown; sequences stand for … in …GCCTAGGGAGATTAGAGTATCGGTCGA
On to ACAGACCTTTGTATATTCCCTTTGTATGGC, for which the binding signal (log2 normalized intensity) came out at 2.06.
Regarding CGTTAACATCAGCTGAGCAGAGAGGACCCT, the binding signal (log2 normalized intensity) worked out at 1.6.
The same measure for AGGAGGACATACTCCTACCACCAAAGAAAA: -1.15; for GTATACTGACTAGGACAGAGCAGATGAAAG: -1.34; for TAAGCTCATGCTTTCATCTCCCCAACACTT: 3.52.
Consider AGCCATTAGGCTGATGCCCTTTGGATTTAG, for which the binding signal (log2 normalized intensity) is 4.65.
For TTAGGCCTCGGGAGTCTGGCTGCCCTGGGG, the binding signal (log2 normalized intensity) is -0.712.
The value for GTCCTACAAATGATCAAAGGTTGGTCTTAG was 3.41; that for TGTGTAGACATCACCTGCTCATTGACCCTT was 5.99; that for GATCCCGGGAGGGAGAGAAGGACATCTATC was -1.26.
The value for GTGTGAGGTCCAAGCAGATGCTTTGAAGTG was 0.283.
The same measure for TTTTGATCAAGGAGGACTTTGGAATGGCAG: 4.79; for GCCAAAAGGTGCTACCACGAGAGTAGAGAG: -1.22.
Regarding AGATTTGACCTACGGACCATGGATCGCCAA, the binding signal (log2 normalized intensity) amounted to 2.69.
For the sequence GGACGTCCCCGGGCGGGATGGGGTCACGAG, the binding signal (log2 normalized intensity) turned out to be 3.04.
The value for CTCAAGCCAGACTGGTTTTTCTTGGGTGTA was 1.76.
The same measure for CTGATAAAACAGCATGCGGTAAAGAAGCCA: -1.33; for AGCCTAGTAAAAGGTAGATACTATAATTAG: -1.18.
With GCATGGCTCAGTCCAAGTCCAAAGGTCTGA, the binding signal (log2 normalized intensity) came to 6.28.
The same measure for CTATCTTTGTAAGTACATTAATATACTGTG: 1.89; for CTTATCAGCAAGCATTAATCCCTGAGCCTG: -1.33.
The same measure for TTAAAGCATATTTATTCAGGCCCACTGCAG: -1.21.
Take ATCCCAGTTACTCAGCGAATACCAAATTCC: the binding signal (log2 normalized intensity) is -0.965.
Regarding ATGCACGTGCTCCAGGAGGGGAGGAGGGTC, the binding signal (log2 normalized intensity) stood at 3.4.
The value for AGCTGTGAACTGACTGGGGTTAACGTCCAA was 3.43; that for CCTATTATTTTATAGAAAAGGAAAGTGAGG was 1.22.
The same measure for TGGGGATGCTCAAAGTACACTTGGAGAAAA: 0.892.
The value for TCACCCTGGTGCTGCTACTTTAGCTGCCAG was -1.35; that for CAACCTGCTCTTCTCTAAAGTCTGCTATCT was 1.26; that for TGTGATGTGAAGAGTGTGGACTTTCACCTC was 8.92.
AACATAACAGCAACAACACAGATCATATCA: the binding signal (log2 normalized intensity) was -1.27.
Regarding CTTTGACCTCAGAGAGCCGGAAACTCCACC, the binding signal (log2 normalized intensity) is -0.861.
The value for TCCAAAGGTGTCAAGAACATAGCCCTCTAC was -1.28; that for GCCCACTTTCCTGGGCCGGGGTAGCGCTCT was -1.14.
Consider ACATCCTCTCAGGTCAAAGTTTGCCTTGAC, for which the binding signal (log2 normalized intensity) worked out at 3.22.
With ATGCTATCTCCCAGTTCTTTTGACCTTTGC, the binding signal (log2 normalized intensity) was determined as 8.5.
The same measure for CAGGTGAGCCCTACTCAGGTTAATCTCAAA: -0.661; for CTATGTCAATAGAGCATGAGAACTTCTTCC: -1.07.
Regarding CTCTCCACCCCCATGCAAGTTCCCACAGAG, the binding signal (log2 normalized intensity) came to 4.72.
The value for CCTGATAATGACTCTTGAACCACAGTCCCC was 1.63.
